Over roughly 33,000 sequences, “E-score (-0.5 to 0.5)” has its median near -0.056; the highest 2% begin near 0.38. This is one part of the list.
target: Stb4 (UniProt P50104); assay: PBM E-score (8-mer binding enrichment) (E-score (-0.5 to 0.5)); higher = stronger / more preferred TF binding; most listed sequences are background and not binding sites; settings: protein concentration: 200 nM; construct: GST-DNA-binding domain
Protocol: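 Universal 'all 10-mer' protein binding microarrays (Agilent AMADID 015681) probed with GST-tagged S. cerevisiae TFs (full-length or DBD) made by in vitro transcription/translation (PURExpress), about 100-200 nM. Bound TF was detected with fluorescent anti-GST. Each ungapped 8-mer (which stands for itself and its reverse complement) is scored by the PBM enrichment score (E-score), a modified Wilcoxon-Mann-Whitney statistic from -0.5 to +0.5, computed with the Universal PBM Analysis Suite. Scale: above 0.35 generally sequence-specific binding.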

| Sequence | PBM E-score |
| --- | --- |
| ATCAGCGA | -0.0379 |
| CTTATGGA | -0.0602 |
| AAAGCGCG | -0.00999 |
| AAGTCTGC | -0.241 |
| TGTTTCAA | -0.0915 |
| ATTTCCGA | 0.47 |
| CTAGACCC | -0.0629 |
| GCAATATA | -0.035 |
| AACAAAGA | -0.0512 |
| AAACAGCA | 0.0525 |
| CTGTGCGA | -0.289 |
| CTGGAGTA | -0.239 |
| CAGGCTGG | -0.16 |
| CTAATCCC | 0.00624 |
| AAGCACAC | -0.171 |
| CTATCGGA | 0.423 |
| ATCCCGGC | 0.323 |
| AAACCTCC | -0.00783 |
| AGTTCTGC | -0.064 |
| ACTAATAA | -0.107 |
| CGCGTACG | 0.123 |
| ATGGGCTC | -0.185 |
| ACTCCGAT | 0.242 |
| CGATCTAG | -0.164 |
| AGACCTTG | -0.312 |

| Sequence | PBM E-score |
| --- | --- |
| CGTGAGTC | -0.168 |
| GCTACGGA | 0.17 |
| CAACACGC | -0.0694 |
| CGCCCATC | -0.0172 |
| AGACTTCG | -0.113 |
| ACCCCCAA | -0.224 |
| ACGCCTAA | -0.146 |
| AACTGGAG | -0.0545 |
| ATAGAAAC | 0.0344 |
| CCGGTACC | 0.268 |
| AACGTATC | -0.144 |
| AGGTCTGC | -0.213 |
| GTAACGGA | 0.281 |
| AAGAGCTT | -0.00466 |
| GTAAGGAC | 0.0178 |
| ACAGGACG | -0.225 |
| GTTTAAAC | 0.193 |
| CTGCGCCA | -0.0674 |
| AACTTCGC | -0.041 |
| TGTCCGAA | 0.35 |
| AGGTTGAG | -0.325 |
| ATAATGAC | 0.00969 |
| AACCTCTA | 0.0232 |
| CTGTTTTC | -0.0458 |
| ACAGGAGC | -0.101 |

| Sequence | PBM E-score |
| --- | --- |
| CCAGCAGG | -0.251 |
| GTGCGGTA | 0.0888 |
| AGCTCAAT | -0.111 |
| AGTAGAGC | -0.181 |
| CTTACTCA | 0.0099 |
| GCGTGCCA | 0.0339 |
| ATACTATC | 0.0489 |
| GATTCCAA | -0.124 |
| CCCAGGAC | -0.13 |
| CGTGTAAG | -0.166 |
| TATGACCA | 0.0287 |
| AATACTAC | 0.0628 |
| ACGCTATC | -0.0815 |
| AGTAGACG | -0.0988 |
| GAAGTGTA | -0.107 |
| CCTCCGTC | 0.0222 |
| CGGGAAAG | 0.319 |
| ACGGTCAT | -0.0289 |
| CTCTGACC | -0.188 |
| CTTCTGTC | -0.158 |
| CGCATTTC | 0.138 |
| ACATGTAC | -0.0826 |
| GCTCGTCA | -0.134 |
| GGCTAACC | 0.193 |
| CTAATGTA | -0.0543 |

| Sequence | PBM E-score |
| --- | --- |
| GAAGAAAC | -0.0469 |
| ACAGCTAC | -0.102 |
| AAACTAAA | -0.131 |
| GTAGGTAA | -0.0429 |
| TAACCACA | -0.241 |
| ATAACGCA | -0.0729 |
| TGTAAACA | -0.141 |
| CATCGCTA | -0.195 |
| CCGGAAAG | 0.366 |
| GATGAAGA | 0.0446 |
| GGCTCCAA | -0.00749 |
| AGAGTGGC | -0.161 |
| ATCGCATC | 0.0786 |
| GAGCCCGC | 0.00267 |
| AGTCTGTA | -0.196 |
| ATAGACCC | 0.197 |
| CAGTCGAC | -0.114 |
| ACCCATGA | -0.0426 |
| ACCCCCGA | 0.317 |
| GCATACCA | -0.0344 |
| TGGATCAA | -0.243 |
| ACGGATGC | 0.298 |
| CCAAATCA | -0.122 |
| CACGGAGC | 0.174 |
| GGACGTAA | -0.0839 |

| Sequence | PBM E-score |
| --- | --- |
| GGGAACTA | 0.183 |
| AAGGACAG | -0.0955 |
| ATATCGTA | -0.0422 |
| GTTAGGTA | -0.2 |
| CTGCGAAC | -0.298 |
| AGATATAC | -0.095 |
| AATGGAGG | -0.154 |
| ATAGAGCC | 0.0655 |
| ACAGGAGG | -0.123 |
| GCGACGGA | 0.245 |
| GTAGTAAA | -0.0798 |
| ACAACTAC | -0.113 |
| GGGGCCTA | -0.182 |
| CTATCAAG | -0.266 |
| GTCTTCAC | -0.112 |
| GTCTTCCA | -0.181 |
| ATAATTAC | 0.0147 |
| ACGATAAT | -0.132 |
| ACATAATG | 0.0642 |
| GCACGTAA | 0.0234 |
| CGCTATAG | -0.148 |
| ATCCGCAG | 0.285 |
| AAAGGAGA | -0.293 |
| GGAAGCGA | 0.198 |
| GCTTGACC | -0.0331 |

| Sequence | PBM E-score |
| --- | --- |
| ACCGGCTA | 0.311 |
| AAGGATAA | -0.0289 |
| AGAAACGC | -0.104 |
| ATGTCCGG | 0.253 |
| GGCAGGTA | 0.111 |
| CCAAGGTA | -0.168 |
| AAAGACTC | -0.145 |
| GTGTTAAA | -0.102 |
| ATATTAGA | -0.0989 |
| CCATGCCG | 0.228 |
| CGAAACTC | 0.229 |
| ATAGACTG | -0.213 |
| AGCAGGAA | -0.193 |
| CCGGAACG | 0.424 |
| AAGGATCT | -0.232 |
| CTGTGATA | -0.0568 |
| ATCCGAAT | 0.48 |
| CGTCGTCA | -0.0271 |
| TCGAACCA | -0.236 |
| GCTCGTAC | -0.0377 |
| GGCGGTTA | 0.0844 |
| ACCGATTC | 0.165 |
| GCAAGAGA | -0.173 |
| AGTCAGGC | -0.0872 |
| GAATCATC | 0.0284 |

| Sequence | PBM E-score |
| --- | --- |
| CATCTGAA | 0.00559 |
| CTGTGGTC | -0.144 |
| AGCATTAA | -0.0145 |
| ACGCGCGC | -0.12 |
| AAACCCCA | -0.204 |
| CTATCAGA | 0.0798 |
| ACCTCTAA | 0.046 |
| AGGCTGGG | -0.236 |
| AATACATG | 0.0132 |
| CGATATTC | 0.293 |
| ACGACCAG | -0.239 |
| TGTATTAA | -0.134 |
| ATTGATAC | 0.114 |
| CACATAAA | -0.144 |
| CAACACTC | -0.0329 |
| GGTGTGAC | -0.135 |
| GCCGTGTA | 0.026 |
| CGCCCATA | -0.021 |
| TAGTCAGA | -0.267 |
| GAGTCAAA | -0.0124 |
| AGCTAAGA | -0.055 |
| ACTGTTGC | 0.071 |
| GCCGACCC | 0.335 |
| ACGTCATC | -0.178 |
| CATTCTCG | 0.111 |

| Sequence | PBM E-score |
| --- | --- |
| CCATGGGC | -0.0806 |
| ACCCAGCC | -0.048 |
| CATGATCC | 0.172 |
| GCGCCGAA | 0.388 |
| GGCGGTCA | 0.171 |
| TAGTTAAA | 0.0473 |
| CCTACCTA | -0.142 |
| AAAGCCGA | 0.322 |
| CCGTGGGA | -0.0683 |
| CAGAGCCC | -0.0541 |
| TTGCCCAA | -0.284 |
| GTCGAGAC | 0.0445 |
| CGAGCGAA | 0.0313 |
| CGTCGTAG | 0.0791 |
| CTGAACTA | -0.063 |
| CCTTGACC | 0.0483 |
| GGCGAGAA | -0.00888 |
| AGTCCGTG | 0.0282 |
| GAGGGTCC | 0.201 |
| AACTCATG | -0.104 |
| ACGGCACG | 0.174 |
| CGTATGTA | -0.0767 |
| TACTCACA | -0.213 |
| AATTGCAG | -0.0545 |
| CGCTCAGC | -0.0683 |

| Sequence | PBM E-score |
| --- | --- |
| CGAGTGAA | 0.185 |
| CGTCTGCA | -0.122 |
| GAAATGTA | 0.254 |
| AGATGTTA | -0.112 |
| TGAATTCA | -0.215 |
| GGACATCA | -0.0449 |
| AAAAAGTT | 0.00642 |
| AAACGCCT | -0.0415 |
| CAGATACG | 0.0185 |
| AGATATGA | -0.0877 |
| GATCGTGA | 0.0553 |
| CCACGTCA | -0.308 |
| CCCCGCAC | -0.0073 |
| AATGTAAC | 0.101 |
| AGCAAATC | -0.0388 |
| GGAGAGGA | -0.0849 |
| TAAATGTA | -0.172 |
| GAGGGTTA | -0.107 |
| AGGGTCAC | -0.2 |
